# Experimental data as given in patent publication US20130039912A1 (Sanofi, published 2013).
# T1: mSlit2-D2 (murine, UniProt Q9WVC1 11-484 (rat entry))
# T1 construct: also called murine Slit2 protein
# T1 chain: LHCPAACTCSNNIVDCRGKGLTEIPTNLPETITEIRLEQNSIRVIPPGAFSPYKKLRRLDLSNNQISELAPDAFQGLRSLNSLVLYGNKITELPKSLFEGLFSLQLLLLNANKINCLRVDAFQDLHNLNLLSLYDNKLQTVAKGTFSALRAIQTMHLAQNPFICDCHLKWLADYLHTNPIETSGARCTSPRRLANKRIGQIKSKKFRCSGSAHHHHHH
# T2: Slit2-D1D2 (human, UniProt O94813 31-479)
# T2 construct: In the FACS assay expressed by transient transfection of pXL4912 in HEK293 cells
# T2 sequence: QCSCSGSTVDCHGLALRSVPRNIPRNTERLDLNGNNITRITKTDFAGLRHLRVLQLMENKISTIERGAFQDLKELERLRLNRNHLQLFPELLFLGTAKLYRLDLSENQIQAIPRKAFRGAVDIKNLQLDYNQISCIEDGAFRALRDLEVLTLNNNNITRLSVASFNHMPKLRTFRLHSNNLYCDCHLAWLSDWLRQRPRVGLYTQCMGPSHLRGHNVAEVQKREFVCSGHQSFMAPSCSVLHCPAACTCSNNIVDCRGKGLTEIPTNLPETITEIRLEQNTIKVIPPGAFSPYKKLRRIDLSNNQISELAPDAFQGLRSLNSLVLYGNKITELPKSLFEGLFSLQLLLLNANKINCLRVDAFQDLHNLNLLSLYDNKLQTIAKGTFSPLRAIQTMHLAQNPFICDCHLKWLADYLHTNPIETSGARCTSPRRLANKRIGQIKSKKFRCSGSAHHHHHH
# T3: Slit2-D2 (human)
# T3 construct: Used purified (ELISA, SPR) and expressed by transient transfection of pXL4911 in HEK293 cells (FACS); also called human Slit2-D2 protein; D2 domain of human Slit2
# T3 chain: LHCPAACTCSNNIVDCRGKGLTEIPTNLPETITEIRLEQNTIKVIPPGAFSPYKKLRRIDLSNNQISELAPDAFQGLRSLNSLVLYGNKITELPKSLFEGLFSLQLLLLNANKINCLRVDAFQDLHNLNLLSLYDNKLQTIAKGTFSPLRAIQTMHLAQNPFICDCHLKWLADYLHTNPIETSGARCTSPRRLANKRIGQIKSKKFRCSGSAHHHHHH
# T4: Slit3-D2 (human)
# T4 chain: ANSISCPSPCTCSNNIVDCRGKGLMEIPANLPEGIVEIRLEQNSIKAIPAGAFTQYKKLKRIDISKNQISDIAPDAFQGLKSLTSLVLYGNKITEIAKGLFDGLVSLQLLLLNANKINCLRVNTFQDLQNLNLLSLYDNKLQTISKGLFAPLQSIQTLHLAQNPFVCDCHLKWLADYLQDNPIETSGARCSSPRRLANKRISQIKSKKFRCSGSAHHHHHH
# Columns and labels:
# mSlit2-D2 = biological target: T1, mSlit2-D2; assay: ELISA, mSlit2-D2 coated, Robo1-Fc L1 titrated
# Experimental: The murine protein mSlit2-D2 was bound to an Immulon-4 enzyme-linked plate (VWR Scientific Inc. Swedesboro, N.J.). A concentration range (from 2 μg/mL to 0.002 μg/mL) of the Robo1-Fc L1 fusion protein was added and then detected using the peroxidase-conjugated goat anti-human IgG antibody (Sigma; ref. A0170, dilution to 1:50 000). Visualization was carried out with the TMB-H₂O₂ substrate (Interchim; ref UP664780) and the measurements were carried out with a plate reader at 450 nm.
# Slit2-D1D2 = biological target: T2, Slit2-D1D2; assay: FACS on HEK293 cells transiently expressing Slit2-D1D2
# Experimental: The HEK293 cells described and used as in example 1 were transfected either with a ballast plasmid, having no cDNA that encodes in the mammalian cell, or the pXL4911 plasmid encoding the Slit2-D2 protein, or the pXL4912 plasmid encoding the Slit2-D1D2 protein, or pXL5033 encoding the Slit2-N protein described in example 2, The cells were distributed into 96-well plates 48 hours post-transfection, and the Robo1-Fc protein was added in a concentration range of from 0.01 to 3 mg/L for 30 min at 4° C. The Robo1-Fc protein is either the Robo1-Fc L1 biotherapeutic agent, or the Robo1-Fc Slit2-minus mutant, or the Robo1-Fc heparin-minus mutant. The cells were washed and the anti-human Fc antibody labelled with Alexa 488 (ref: A-11013, Invitrogen) was incubated for 30 min at 4° C. The labelled HEK293 cells are then quantified by FACS (Geomean).
# Slit2-D2 [1] = biological target: T3, Slit2-D2; assay: ELISA, Slit2-D2 coated, Robo1-Fc titrated, anti-human IgG-HRP
# Experimental: (§1) The D2 domain of the human Slit variants was bound to Immulon-4 enzyme-linked plates (VWR Scientific Inc. Swedesboro, N.J.). A concentration range (from 1 μg/mL to 0.001 μg/mL) of the Robo1-Fc L1 fusion protein was added and than detected using the peroxidase-conjugated goat anti-human IgG antibody (Sigma; ref. A0170, dilution to 1:50 000). Visualization was carried out with the TMB-H₂O₂ substrate (Interchim; ref UP664780) and the measurements were carried out with a plate reader at 450 nm. Similarly, the Robo1-Fc Slit2-minus variant, which is mutated at the level of the Slit2-binding site, was evaluated according to a concentration range (from 20 μg/mL to 0.02 μg/mL) by ELISA assay under the same conditions described above.
# Slit2-D2 [2] = biological target: T3, Slit2-D2; assay: SPR, Slit2-D2 on CM5 chip, two-phase Scatchard model, high-affinity site
# Experimental: A second method, which consists in determining the affinity constant between the Robo1-Fc L1 fusion protein and the human Slit2 protein, was analysed after having bound the Slit2-D2 protein to the CM5 chip. The kinetic measurements are carried out according to the protocol of Canziani eta((2004. Anal. Biochem. 325: 301-307) using the Scatchard method according to a model with two non-equivalent binding sites, […]
# Slit3-D2 = biological target: T4, Slit3-D2; assay: ELISA, Slit3-D2 coated, Robo1-Fc titrated, anti-human IgG-HRP
# Experimental: as §1
binder,measurement,setting,value
"Robo1-Fc L1 (Fc fusion, also called Robo-Fc L1; Robo1-Fc L1 biotherapeutic agent) SRLRQEDFPPRIVEHPSDLIVSKGEPATLNCKAEGRPTPTIEWYKGGERVETDKDDPRSHRMLLPSGSLFFLRIVHGRKSRPDEGVYVCVARNYLGEAVSHNASLEVAILRDDFRQNPSDVMVAVGEPAVMECQPPRGHPEPTISWKKDGSPLDDKDERITIRGGKLMITYTRKSDAGKYVCVGTNMVGERESEVAELTVLERPSFV[here human IgG4 Fc with changes without letters]",EC50,mSlit2-D2,0.221 µg/mL
same,Kd,Slit2-D1D2,0.98 nM
same,EC50,Slit2-D2 [1],0.132 µg/mL
same,Kd,Slit2-D2 [2],1.5 nM
same,EC50,Slit3-D2,0.26 µg/mL
